Assay results: PubChem BioAssay AID1345083 (National Center for Advancing Translational Sciences (NCATS), 2018)
Screen size: about 94,000 compounds; about 6,200 (6.6%) were called active. The inconclusive results got no clear call from the source; some entries with a clear call stand among them for comparison. Calls follow the shape of the dose curve; as a rule, active = well fitted inhibition curve with a large enough effect; inconclusive = small, poorly fitted or top-dose-only effect; inactive = flat fitted curve, though single readings scatter. Potencies of inconclusive entries are doubtful fits and often do not repeat.

assay: Cytotoxic Profiling in HEK 293 Cell Line of Diverse Libraries Using Quantitative High-Throughput Screening; conditions: HEK 293 viability, ATP luminescence (CellTiter-Glo), 48-72 h; activity change, negative = cytotoxicity: at 115 µM (top of the series) unless noted; series mostly up to 115 µM; also: nearly all actives have a fitted effect of over 60% in size
How it was run: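 Luminescence from cellular ATP, measured with CellTiter-Glo, indicates HEK 293 viability. Cells plated at 250 cells/well are treated with compound for 48 or 72 hr at 37 degree Celsius before reagent addition.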
% is scaled to controls: 0 for no effect and ±100 for the full control effect; potency is read from the fitted curve at half-maximal effect; tags tell the direction and shape of the fitted curve.

Compound	Potency	activity change, negative = cytotoxicity	outcome
COc1ncc(CN2CCC3(CC2)OC(=O)N(Cc2ccccc2)C3(C)c2ccccc2)cn1 (configuration not stated)	inconclusive: 56.2 µM [inhibitor, partial curve, poor fit]	–	–
COc1ccc(CCNC(=O)Cn2ccn3nc4c(c3c2=O)CCCCC4)cc1OC	inconclusive: 89.1 µM [inhibitor, single point]	–	–
Cc1oc2c(c1C(=O)N(C)C)CN(Cc1ccc(Br)o1)CC2	inconclusive: 89.1 µM [inhibitor, single point]	–	–
O=C1CCN(C(=O)CC2CCCC2)CCCC(c2nc(-c3ccccc3)no2)CCN1 (configuration not stated)	inconclusive: 50.1 µM [inhibitor, partial curve, poor fit]	–	–
CC(C)c1ccccc1OCC(=O)c1ccc2c(c1)N(CC(=O)N1CCCC1)C(=O)CO2	active: 39.8 µM	–	–
COCC1CN(C(=O)c2sccc2C)CC12CCOCC2 (configuration not stated)	inconclusive: 100 µM [inhibitor, partial curve, poor fit]	–	–
CCn1nccc1C(=O)N1CCC(OCC2CC2)C1 (configuration not stated)	–	inactive: -21.5%	–
COc1ccc(-c2nn(-c3ccccc3C)cc2CN2C[C@@H](C)O[C@@H](C)C2)cc1F	inconclusive: 56.2 µM [inhibitor, partial curve, poor fit]	–	–
COc1ccccc1C(=O)Nc1ccc([C@@H](O)[C@H]2COCC(=O)N2Cc2ccc(F)cc2)cc1	inconclusive: 79.4 µM [inhibitor, partial curve]	–	–
O=C(Cn1ccn2nc(-c3ccccc3)c(CO)c2c1=O)Nc1ccc2c(c1)CCC2	inconclusive: 79.4 µM [inhibitor, partial curve, poor fit]	–	–
Cn1nc(C(=O)NCC23CCC=C2N(CC2CC2)C(=O)CC3)c2ccccc21 (configuration not stated)	–	inactive: -8.47%	–
CCCn1ncc(C(=O)N2CCOCC2CC(=O)N2CCSCC2)c1C (configuration not stated)	–	–	inactive
COc1ccc(-c2cccc(C(=O)NCc3cccc(Cl)c3)c2)nn1	active: 79.4 µM	–	–
CC(=O)N1CCC(c2nn(-c3ccc(Cl)cc3)c(=O)[nH]2)CC1	–	inactive: -7.53% [at 172 µM]	–
OC1(c2nc(Nc3ccc(OC(F)(F)F)cc3)n[nH]2)CCOCC1	inconclusive: 100 µM [inhibitor, partial curve, poor fit]	–	–
Cc1nn(-c2ccccc2)c2c1C(C)N(C1CCN(C(=O)c3ccc(Cl)nc3)C1)C2=O (configuration not stated)	inconclusive: 56.2 µM [inhibitor, partial curve, poor fit]	–	–
CCNC(=O)[C@@H]1C[C@H](NC(=O)c2cccc(-c3ccc(F)cc3)c2)CN1C	inconclusive: 56.2 µM [inhibitor, partial curve, poor fit]	–	–
Cc1ccc(C(=O)N2CCC3(CC2)NC(=O)c2ccccc2O3)cc1	inconclusive: 89.1 µM [inhibitor, partial curve]	–	–
Fc1ccccc1-c1ccc(CNCc2ccco2)o1	inconclusive: 50.1 µM [inhibitor, partial curve, poor fit]	–	–
CCCCCNC(=O)CC(c1cccc(OC)c1OC)c1c[nH]c2ccccc12 (configuration not stated)	inconclusive: 50.1 µM [inhibitor, partial curve, poor fit]	–	–
COc1ccc(-c2nc(C(C)C)nc3c2CCN(C(=O)c2ccc(C(F)(F)F)cc2)CC3)cc1	active: 31.6 µM	–	–

Compound	Potency	activity change, negative = cytotoxicity	outcome
O=C1NC[C@@H](CCC(=O)N2CCCCC2)N2C[C@@H](NC(=S)Nc3ccc(Cl)cc3)C[C@@H]12	–	inactive: -5.79%	–
CC(=O)NCCc1ncc(C)n1C1CCC1	–	–	inactive
COc1ccc(-c2cc(C(=O)N3CCOC(c4ccc(F)cc4)C3)[nH]n2)cc1 (configuration not stated)	inconclusive: 44.7 µM [inhibitor, partial curve, poor fit]	–	–
Fc1ccc2oc([C@H]3CCN(CC4CCCCC4)C3)nc2c1	inconclusive: 126 µM [inhibitor, single point]	–	–
Cc1ccc(-c2cc3c(=O)n(CC(O)c4ccc(C)c(C)c4)ccn3n2)c(C)c1 (configuration not stated)	active: 39.8 µM	–	–
O=C(NCC1CCN(c2cc(-c3ccc(F)cc3)[nH]n2)CC1)c1cc(C2CC2)[nH]n1	inconclusive: 56.2 µM [inhibitor, partial curve, poor fit]	–	–
Cc1ccccc1CNC[C@H]1O[C@H](Cc2cc(CN(C)Cc3ccccc3)on2)CC[C@@H]1O	inconclusive: 79.4 µM [inhibitor, partial curve, poor fit]	–	–
N#Cc1cccc(NC(=O)N[C@H]2CO[C@H]3[C@@H]2OC[C@@H]3Nc2nccc(-c3cccc(F)c3)n2)c1	inconclusive: 56.2 µM [inhibitor, partial curve, poor fit]	–	–
CC1Oc2ccc(NC(=O)c3cccs3)cc2CN(Cc2ccc(F)cc2)C1=O (configuration not stated)	inconclusive: 44.7 µM [inhibitor, partial curve, poor fit]	–	–
CN(C(=O)c1ccc2nc(-c3ccc(F)cc3)cn2c1)C1CCOCC1	inconclusive: 89.1 µM [inhibitor, single point]	–	–
Cc1ccc(CN2C[C@@H]3C(=O)N(CCc4ccccc4)C(=O)[C@@H]3C2)s1	inconclusive: 70.8 µM [inhibitor, single point]	–	–
CN(C)C(=O)N1C2CCC1CN(c1ccc(C(F)(F)F)cc1)C2	inconclusive: 56.2 µM [inhibitor, partial curve, poor fit]	–	–
CN1Cc2c(cc(N3CCOCC3)nc2-c2cccc(N[S+](C)(=O)[O-])c2)C1=O	inconclusive: 63.1 µM [inhibitor, full curve]	–	–
O=C(c1ccc(F)cc1)N1CCC[C@H]1c1nc(-c2ccccc2Cl)no1	inconclusive: 79.4 µM [inhibitor, single point]	–	–
Cc1ccccc1S(=O)(=O)N1CCN(C(=O)N2CC3CC(C2)[C@H]2CCCC(=O)N2C3)CC1 (some centres not stated)	–	inactive: 5.38%	–
CCN(CC)Cc1cnc2c(C(=O)Nc3ccc(OC)cc3)cnn2c1	inconclusive: 89.1 µM [inhibitor, single point]	–	–
O=C(Nc1ccccc1)c1ccc2c(c1)OCCN(c1ccccc1)C2	active: 112 µM	–	–
Cc1ccc(C)c(NC(=O)CN2C(=O)NC(c3ccc(Cl)cc3)C3=C2COC3=O)c1 (configuration not stated)	inconclusive: 44.7 µM [inhibitor, partial curve, poor fit]	–	–
CC(=O)N1CCC(c2nnc3n2C(C(=O)N2CCN(C)CC2)CC3)CC1 (configuration not stated)	–	inactive: -11.5%	–
O=C(Nc1ccc(Cl)cc1)N1Cc2[nH]cnc2C[C@H]1c1nc(-c2ccc(OC(F)(F)F)cc2)no1	active: 20 µM	–	–
COc1ccc(F)c(F)c1CN1CCC2(CCNCC2)C1	inconclusive: 63.1 µM [inhibitor, partial curve, poor fit]	–	–

Compound	Potency	activity change, negative = cytotoxicity	outcome
Cc1ccc(C(=O)N2CCC3(CC2)N=C(c2cccc(Br)c2)NO3)cc1	inconclusive: 79.4 µM [inhibitor, partial curve, poor fit]	–	–
O=C(c1ccc(Cl)nc1)N1CCCN(c2ccc3nnc(-c4ccccc4)n3n2)CC1	–	inactive: -31.6%	–
Clc1ccc(-c2ccc(CN3CC[C@H]4CC[C@@H](C3)N4)o2)cc1	active: 28.2 µM	–	–
C#Cc1cccc(C(=O)N2CCC(Cc3ccc(Cl)cc3)(C(=O)OCC)CC2)c1	inconclusive: 50.1 µM [inhibitor, partial curve, poor fit]	–	–
COc1ccc(CN[C@@H]2CCC[C@@H](C(=O)N(C)Cc3cccnc3)CC(=O)N(C)C2)cc1	–	inactive: -27.5%	–
COC(=O)CNC(=O)c1cn2cc(-c3ccc(C)cc3)sc2n1	inconclusive: 126 µM [inhibitor, single point]	–	–
Fc1ccccc1CN1CCNc2cnc(Oc3ccccc3)cc2C1	active: 79.4 µM	–	–
Cc1ccc(C(=O)N2CCN(C3CCN(CCc4ccccc4)C3=O)CC2)cc1F (configuration not stated)	inconclusive: 89.1 µM [inhibitor, single point]	–	–
O=C(CCC1CCN(S(=O)(=O)c2ccccc2)CC1)NCCc1ccccc1	inconclusive: 79.4 µM [inhibitor, single point]	–	–
COc1cccc(CC2(CO)CCCN(C(=O)c3cn4ccsc4n3)C2)c1 (configuration not stated)	inconclusive: 89.1 µM [inhibitor, partial curve, poor fit]	–	–
Cc1ccccc1CN1CCC(CN(Cc2cccnc2)C(=O)Cc2ccccc2)CC1	inconclusive: 56.2 µM [inhibitor, partial curve, poor fit]	–	–
CCOC(=O)C1CCCN(C(=O)CC(c2ccc3c(c2)OCO3)c2cn(CC)c3ccccc23)C1 (configuration not stated)	inconclusive: 50.1 µM [inhibitor, partial curve, poor fit]	–	–
O=C1COc2ccc(-c3ccoc3)nc2CN1Cc1ccc(C(F)(F)F)cc1	inconclusive: 79.4 µM [inhibitor, partial curve, poor fit]	–	–
Cc1ccccc1N1Cc2c(NCC3CCCCC3)ncnc2N(C)CC1=O	inconclusive: 89.1 µM [inhibitor, partial curve, poor fit]	–	–
CN(C)C(=O)CN1C(=O)CO[C@H](c2ccc(NC(=O)c3ccc(C(F)(F)F)cc3)cc2)[C@H]1CO	–	inactive: -28.7%	–
Cc1[nH]c2c(F)cccc2c1CC(=O)N1CCCC(c2nc(C(C)C)no2)C1 (configuration not stated)	inconclusive: 50.1 µM [inhibitor, partial curve, poor fit]	–	–
COc1ccc(NC(=O)Nc2ccc(C)n(CC(=O)Nc3ccc(C)c(C)c3)c2=O)cc1	inconclusive: 89.1 µM [inhibitor, single point]	–	–
Cc1cccc(-c2cccc(CN3CCC(NC(=O)Nc4ccccc4)CC3)c2)c1	active: 22.4 µM	–	–
CCc1cc(=O)n(CC(=O)Nc2ccc(Br)cc2)c(N2CCOCC2)n1	inconclusive: 79.4 µM [inhibitor, single point]	–	–
Cn1nccc1C(=O)N1CCc2c(n(CCOc3ccccc3)n(-c3ccccc3)c2=O)C1	inconclusive: 89.1 µM [inhibitor, single point]	–	–
